Results: the supplement of paper PMC12217912
The other results are listed elsewhere or left out. The full chains were built here from the parent and the listed change. Inactive controls read about 0.05.

B1: TEV protease; numbered along this chain (parent)
chain: MGESLFKGPRDYNPISSSICHLTNESDGHTTSLYGIGFGPFIITNKHLFRRNNGTLVVQSLHGVFKVKDTTTLQQHLVDGRDMIIIRMPKDFPPFPQKLKFREPQREERICLVTTNFQTKSMSSMVSDTSCTFPSGDGIFWKHWIQTKDGQCGSPLVSTRDGFIVGIHSASNFTNTNNYFTSVPKNFMELLTNQEAQQWVSGWRLNADSVLWGGHKVFMVKPEEPFQPVKEATQL

Variants of: B1
Experiment: raw area under fraction-flipped curve 0-4 h after induction (AUC4h, not background-subtracted), DNA-recorder readout of cleavage of the substrate (dimensionless); higher = more cleavage of the substrate by the protease variant
Settings: temperature: 34 °C; time window: 0-4 h after rhamnose induction
Experimental: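 In vivo DNA recorder in E. coli TOP10(DE3) ΔrhaA at 34 °C. Each TEVp single-site mutant (parent TEVp 0) is paired with a single-site variant of the 7-mer TEVs (canonical ENLYFQ|S). The substrate sits between flexible linkers in a Bxb1-sfGFP-TEVs-SsrA fusion, so cleavage stabilises Bxb1 and speeds flipping of a recombination array, read by NGS. The value is the raw area under the fraction-flipped curve over 0-4 h after rhamnose induction (AUC4h), with ≥20 reads per time point. It is not background-subtracted; inactive controls average about 0.047.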
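Further: Bxb1 expression induced with 0.2% (w/v) L-rhamnose at OD600 near 0.5, cultures sampled hourly, flipped fraction per protease–substrate barcode pair counted by paired-end Illumina sequencing.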

| Variant | area with substrate CNLYFQS | area with substrate DNLYFQS | area with substrate FNLYFQS | area with substrate GNLYFQS | area with substrate HNLYFQS | area with substrate INLYFQS | area with substrate LNLYFQS | area with substrate MNLYFQS | area with substrate NNLYFQS | area with substrate PNLYFQS | area with substrate SNLYFQS | area with substrate TNLYFQS | area with substrate WNLYFQS | area with substrate KNLYFQS | area with substrate VNLYFQS | area with substrate YNLYFQS | area with substrate RNLYFQS | area with substrate QNLYFQS |
| --- | --- | --- | --- | --- | --- | --- | --- | --- | --- | --- | --- | --- | --- | --- | --- | --- | --- | --- |
| E3H | 0.0801 | 0.0728 | 0.0653 | 0.0692 | 0.0654 | 0.0532 | 0.0601 | 0.0822 | 0.0799 | 0.0838 | 0.0727 | 0.0718 | 0.0672 |  |  |  |  |  |
| E3M | 0.0612 | 0.117 |  |  | 0.0648 | 0.0583 | 0.0754 | 0.0645 | 0.059 | 0.0698 | 0.0786 | 0.0784 | 0.0553 | 0.0792 | 0.073 | 0.0814 |  |  |
| E3Q | 0.0793 | 0.0835 | 0.0786 | 0.0612 | 0.0687 |  | 0.0633 |  |  | 0.0602 | 0.0657 | 0.0614 |  |  | 0.07 | 0.058 |  |  |
| S4C | 0.0718 | 0.0727 |  |  | 0.058 | 0.0675 | 0.0554 | 0.0489 | 0.0716 | 0.0715 | 0.0609 | 0.0705 | 0.0551 |  | 0.0539 | 0.0638 |  |  |
| S4H | 0.0691 | 0.0935 | 0.0592 | 0.0681 | 0.0753 | 0.0715 | 0.0443 | 0.0631 | 0.0789 | 0.0716 |  | 0.109 | 0.05 | 0.0635 |  | 0.0254 | 0.0597 |  |
| K7D | 0.0692 | 0.0769 | 0.031 | 0.0621 | 0.0757 | 0.0814 | 0.0586 |  | 0.0665 |  | 0.0753 | 0.0505 |  |  | 0.0601 |  | 0.0566 |  |
| P9F | 0.0593 | 0.0565 | 0.103 | 0.0714 | 0.0671 |  | 0.0562 | 0.0715 | 0.0727 | 0.0605 | 0.063 | 0.057 | 0.0579 | 0.0597 | 0.0642 | 0.0505 | 0.0709 |  |
| P9L | 0.078 | 0.0996 |  | 0.0978 | 0.0725 | 0.0823 |  |  |  | 0.0681 |  | 0.0742 |  | 0.0643 |  | 0.0617 | 0.0589 |  |
| R10M | 0.0728 | 0.0355 |  |  |  | 0.0712 | 0.055 | 0.0665 |  | 0.0806 |  | 0.0594 |  | 0.0727 |  |  |  | 0.0775 |
| D11V | 0.0581 | 0.0799 | 0.0497 |  | 0.058 | 0.0636 |  | 0.0624 | 0.0672 | 0.0636 | 0.0506 | 0.0684 | 0.0595 | 0.0568 | 0.0567 | 0.0511 |  |  |
| Y12L | 0.0619 | 0.0863 | 0.0594 | 0.07 | 0.0619 | 0.0692 |  | 0.0663 | 0.067 | 0.0819 |  | 0.0852 | 0.0617 |  |  |  |  |  |
| N13E | 0.0749 | 0.094 |  | 0.0625 | 0.0656 |  | 0.0737 | 0.0724 | 0.0779 | 0.0759 | 0.0564 | 0.0679 | 0.065 |  | 0.0599 | 0.0398 |  |  |
| N13I | 0.0678 | 0.0709 | 0.0631 | 0.0657 | 0.0599 |  |  | 0.0667 |  | 0.059 | 0.0773 | 0.0606 | 0.0595 |  | 0.056 | 0.0579 |  |  |
| N13L | 0.0832 | 0.0775 | 0.0604 |  | 0.068 | 0.0693 | 0.0676 | 0.0785 | 0.0693 | 0.0839 | 0.0652 | 0.067 | 0.0625 |  | 0.0771 | 0.0666 |  | 0.0848 |
| N13P | 0.0596 | 0.0719 |  |  | 0.0636 | 0.0632 | 0.0477 | 0.0768 | 0.0618 |  | 0.0632 | 0.0582 | 0.0622 | 0.0502 | 0.0563 | 0.047 |  |  |
| P14A | 0.0686 | 0.0369 | 0.0666 | 0.068 | 0.0828 | 0.0796 |  |  | 0.0566 | 0.0807 | 0.084 | 0.0886 | 0.0687 |  | 0.0727 | 0.0704 | 0.0667 |  |
| P14M | 0.0662 | 0.0496 | 0.0545 | 0.0832 | 0.0686 |  | 0.0609 | 0.0941 | 0.0722 |  | 0.0671 | 0.0766 | 0.0658 |  | 0.0643 | 0.0642 | 0.0592 |  |
| P14T | 0.0637 | 0.0691 | 0.0618 | 0.0642 | 0.0606 | 0.0687 | 0.0498 | 0.0775 | 0.074 | 0.0615 | 0.0599 | 0.0631 | 0.0569 |  | 0.0659 | 0.0826 | 0.0674 | 0.0723 |
| P14Y | 0.0712 | 0.0635 | 0.1 | 0.0656 | 0.0692 | 0.0818 | 0.0699 |  |  | 0.0778 | 0.0532 | 0.0568 | 0.0611 | 0.087 |  | 0.0589 |  | 0.0977 |
| I15D | 0.0425 | 0.0527 | 0.0536 | 0.0426 | 0.041 | 0.061 | 0.0527 |  | 0.0465 | 0.0492 | 0.0584 | 0.057 | 0.0587 |  | 0.0457 | 0.046 |  | 0.0415 |
| I15E | 0.0617 | 0.0428 | 0.0315 | 0.0581 | 0.0652 | 0.0528 |  |  | 0.0543 | 0.0515 | 0.072 | 0.044 | 0.0554 | 0.0636 |  | 0.0543 |  |  |
| I15K | 0.054 | 0.0646 |  | 0.051 | 0.0573 |  | 0.0551 |  | 0.0575 | 0.0577 |  | 0.0556 | 0.0451 | 0.0618 |  | 0.0551 |  |  |
| I15Q | 0.0594 | 0.0707 | 0.0477 | 0.0655 | 0.0615 |  | 0.0573 | 0.0606 | 0.0466 | 0.0602 | 0.0665 | 0.0617 | 0.0627 |  |  | 0.0717 |  |  |
| S17A | 0.178 | 0.068 | 0.0817 | 0.0601 | 0.0628 | 0.0719 | 0.0676 |  |  |  |  | 0.0793 | 0.0572 | 0.0665 |  | 0.0671 |  |  |
| S18A | 0.0727 | 0.0692 | 0.0609 |  | 0.0552 | 0.057 |  |  |  |  | 0.076 | 0.0668 | 0.0729 | 0.0716 |  |  |  |  |
| I19K | 0.0535 | 0.0417 | 0.0519 | 0.0454 |  |  |  | 0.0756 | 0.0732 | 0.0498 | 0.0496 | 0.0468 | 0.0542 | 0.0568 |  | 0.0626 |  |  |
| I19P | 0.0423 | 0.0489 | 0.0403 | 0.042 | 0.0399 | 0.041 | 0.0539 | 0.041 | 0.0433 | 0.0431 | 0.0669 | 0.0446 | 0.0436 | 0.0488 | 0.0437 | 0.0354 | 0.0969 |  |
